# Data as given in the supplement of paper PMC8728848.
# The list shows a part of the results.
# B1: PNA (Arachis hypogaea), P02872 (protein)
# chain: MKPFCVFLTFFLLLAASSKKVDSAETVSFNFNSFSEGNPAINFQGDVTVLSNGNIQLTNLNKVNSVGRVLYAMPVRIWSSATGNVASFLTSFSFEMKDIKDYDPADGIIFFIAPEDTQIPAGSIGGGTLGVSDTKGAGHFVGVEFDTYSNSEYNDPPTDHVGIDVNSVDSVKTVPWNSVSGAVVKVTVIYDSSTKTLSVAVTNDNGDITTIAQVVDLKAKLPERVKFGFSASGSLGGRQIHLIRSWSFTSTLITTTRRSIDNNEKKIMNMASA
# Experiments:
# Test in all cases: glycan array binding signal (z-score within array); higher = stronger binding
# Conditions in all cases: glycan notation: IUPAC condensed, linker removed
# Gal(b1-4)GlcNAc(b1-2)Man = target: Gal(b1-4)GlcNAc(b1-2)Man
# Method in brief: (§1)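 Columns mapping to the same glycan were averaged after glycan names were converted to IUPAC-condensed notation. The data come from 3228 arrays in the Consortium for Functional Glycomics database, limited to those with an available protein sequence. Binding is reported as a within-array Z-score averaged across arrays of one protein sequence and across linkers.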
# [1] = target: Gal(b1-4)GlcNAc(b1-2)Man(a1-3)Man(b1-4)GlcNAc(b1-4)GlcNAc
# Method in brief: as §1
# [2] = target: Gal(b1-4)GlcNAc(b1-2)Man(a1-3)[Gal(b1-4)GlcNAc(b1-2)Man(a1-6)]Man(b1-4)GlcNAc(b1-4)GlcNAc
# Method in brief: as §1
# [3] = target: Gal(b1-4)GlcNAc(b1-2)Man(a1-3)[Gal(b1-4)GlcNAc(b1-2)Man(a1-6)]Man(b1-4)GlcNAc(b1-4)[Fuc(a1-6)]GlcNAc
# Method in brief: as §1
# [4] = target: Gal(b1-4)GlcNAc(b1-2)Man(a1-3)[Gal(b1-4)GlcNAc(b1-2)Man(a1-6)][Gal(b1-4)GlcNAc(b1-4)]Man(b1-4)GlcNAc(b1-4)[Fuc(a1-6)]GlcNAc
# Method in brief: as §1
# [5] = target: Gal(b1-4)GlcNAc(b1-2)Man(a1-3)[Gal(b1-4)GlcNAc(b1-2)Man(a1-6)][GlcNAc(b1-4)]Man(b1-4)GlcNAc(b1-4)[Fuc(a1-6)]GlcNAc
# Method in brief: as §1
# [6] = target: Gal(b1-4)GlcNAc(b1-2)Man(a1-3)[Gal(b1-4)GlcNAc(b1-2)][GlcNAc(b1-4)]Man(b1-4)GlcNAc(b1-4)GlcNAc
# Method in brief: as §1
# [7] = target: Gal(b1-4)GlcNAc(b1-2)Man(a1-3)[GlcNAc(b1-2)Man(a1-6)]Man(b1-4)GlcNAc(b1-4)GlcNAc
# Method in brief: as §1
# [8] = target: Gal(b1-4)GlcNAc(b1-2)Man(a1-3)[GlcNAc(b1-4)][Gal(b1-4)GlcNAc(b1-2)Man(a1-6)]Man(b1-4)GlcNAc(b1-4)GlcNAc
# Method in brief: as §1
# [9] = target: Gal(b1-4)GlcNAc(b1-2)Man(a1-3)[Man(a1-6)]Man(b1-4)GlcNAc(b1-4)GlcNAc
# Method in brief: as §1
# [10] = target: Gal(b1-4)GlcNAc(b1-2)Man(a1-6)Man(b1-4)GlcNAc(b1-4)GlcNAc
# Method in brief: as §1
# [11] = target: Gal(b1-4)GlcNAc(b1-2)Man(a1-6)[GlcNAc(b1-2)Man(a1-3)]Man(b1-4)GlcNAc(b1-4)GlcNAc
# Method in brief: as §1
# [12] = target: Gal(b1-4)GlcNAc(b1-2)Man(a1-6)[GlcNAc(b1-2)Man(a1-3)]Man(b1-4)GlcNAc(b1-4)[Fuc(a1-6)]GlcNAc
# Method in brief: as §1
# [13] = target: Gal(b1-4)GlcNAc(b1-2)Man(a1-6)[Man(a1-3)]Man(b1-4)GlcNAc(b1-4)GlcNAc
# Method in brief: as §1
# [14] = target: Gal(b1-4)GlcNAc(b1-2)Man(a1-6)[Man(a1-3)]Man(b1-4)GlcNAc(b1-4)[Fuc(a1-6)]GlcNAc
# Method in brief: as §1
# [15] = target: Gal(b1-4)GlcNAc(b1-2)[Gal(b1-4)GlcNAc(b1-4)]Man(a1-3)[Fuc(a1-3)[Gal(b1-4)]GlcNAc(b1-2)Man(a1-6)]Man(b1-4)GlcNAc(b1-4)GlcNAc
# Method in brief: as §1
# [16] = target: Gal(b1-4)GlcNAc(b1-2)[Gal(b1-4)GlcNAc(b1-4)]Man(a1-3)[Gal(b1-4)GlcNAc(b1-2)Man(a1-6)]Man(b1-4)GlcNAc(b1-4)GlcNAc
# Method in brief: as §1
# [17] = target: Gal(b1-4)GlcNAc(b1-2)[Gal(b1-4)GlcNAc(b1-4)]Man(a1-3)[Gal(b1-4)GlcNAc(b1-2)[Gal(b1-4)GlcNAc(b1-6)]Man(a1-6)]Man(b1-4)GlcNAc(b1-4)GlcNAc
# Method in brief: as §1
# [18] = target: Gal(b1-4)GlcNAc(b1-2)[Gal(b1-4)GlcNAc(b1-4)]Man(a1-3)[GlcNAc(b1-4)][Gal(b1-4)GlcNAc(b1-2)Man(a1-6)]Man(b1-4)GlcNAc(b1-4)GlcNAc
# Method in brief: as §1
# [19] = target: Gal(b1-4)GlcNAc(b1-2)[Gal(b1-4)GlcNAc(b1-4)]Man(a1-3)[GlcNAc(b1-4)][Gal(b1-4)GlcNAc(b1-2)[Gal(b1-4)GlcNAc(b1-6)]Man(a1-6)]Man(b1-4)GlcNAc(b1-4)GlcNAc
# Method in brief: as §1
# [20] = target: Gal(b1-4)GlcNAc(b1-2)[Gal(b1-4)GlcNAc(b1-6)]Man(a1-6)[Gal(b1-4)GlcNAc(b1-2)Man(a1-3)]Man(b1-4)GlcNAc(b1-4)GlcNAc
# Method in brief: as §1
# [21] = target: Gal(b1-4)GlcNAc(b1-2)[Gal(b1-4)GlcNAc(b1-6)]Man(a1-6)[Gal(b1-4)GlcNAc(b1-2)Man(a1-3)]Man(b1-4)GlcNAc(b1-4)[Fuc(a1-6)]GlcNAc
# Method in brief: as §1
# [22] = target: Gal(b1-4)GlcNAc(b1-2)[Gal(b1-4)GlcNAc(b1-6)]Man(a1-6)[GlcNAc(b1-4)][Gal(b1-4)GlcNAc(b1-2)Man(a1-3)]Man(b1-4)GlcNAc(b1-4)GlcNAc
# Method in brief: as §1
# [23] = target: Gal(b1-4)GlcNAc(b1-2)[Gal(b1-4)GlcNAc(b1-6)]Man(a1-6)[GlcNAc(b1-4)][Gal(b1-4)GlcNAc(b1-2)[Gal(b1-4)GlcNAc(b1-4)]Man(a1-3)]Man(b1-4)GlcNAc(b1-4)[Fuc(a1-6)]GlcNAc
# Method in brief: as §1
# Gal(b1-4)GlcNAc(b1-3)Fuc = target: Gal(b1-4)GlcNAc(b1-3)Fuc
# Method in brief: as §1
# [24] = target: Gal(b1-4)GlcNAc(b1-3)Gal(b1-3)GalNAc
# Method in brief: as §1
# [25] = target: Gal(b1-4)GlcNAc(b1-3)Gal(b1-3)GlcNAc
# Method in brief: as §1
# [26] = target: Gal(b1-4)GlcNAc(b1-3)Gal(b1-4)Glc
# Method in brief: as §1
# [27] = target: Gal(b1-4)GlcNAc(b1-3)Gal(b1-4)GlcNAc
# Method in brief: as §1
# [28] = target: Gal(b1-4)GlcNAc(b1-3)Gal(b1-4)GlcNAc(b1-2)Man(a1-3)[Gal(b1-4)GlcNAc(b1-3)Gal(b1-4)GlcNAc(b1-2)Man(a1-6)]Man(b1-4)GlcNAc(b1-4)GlcNAc
# Method in brief: as §1
# [29] = target: Gal(b1-4)GlcNAc(b1-3)Gal(b1-4)GlcNAc(b1-2)Man(a1-3)[Gal(b1-4)GlcNAc(b1-3)Gal(b1-4)GlcNAc(b1-2)Man(a1-6)]Man(b1-4)GlcNAc(b1-4)[Fuc(a1-6)]GlcNAc
# Method in brief: as §1
# [30] = target: Gal(b1-4)GlcNAc(b1-3)Gal(b1-4)GlcNAc(b1-2)[Gal(b1-4)GlcNAc(b1-3)Gal(b1-4)GlcNAc(b1-6)]Man(a1-6)[Gal(b1-4)GlcNAc(b1-3)Gal(b1-4)GlcNAc(b1-2)Man(a1-3)]Man(b1-4)GlcNAc(b1-4)GlcNAc
# Method in brief: as §1
# [31] = target: Gal(b1-4)GlcNAc(b1-3)Gal(b1-4)GlcNAc(b1-2)[Gal(b1-4)GlcNAc(b1-3)Gal(b1-4)GlcNAc(b1-6)]Man(a1-6)[Gal(b1-4)GlcNAc(b1-3)Gal(b1-4)GlcNAc(b1-2)Man(a1-3)]Man(b1-4)GlcNAc(b1-4)[Fuc(a1-6)]GlcNAc
# Method in brief: as §1
# [32] = target: Gal(b1-4)GlcNAc(b1-3)Gal(b1-4)GlcNAc(b1-3)Gal(b1-4)Glc
# Method in brief: as §1
# [33] = target: Gal(b1-4)GlcNAc(b1-3)Gal(b1-4)GlcNAc(b1-3)Gal(b1-4)GlcNAc
# Method in brief: as §1
# [34] = target: Gal(b1-4)GlcNAc(b1-3)Gal(b1-4)GlcNAc(b1-3)Gal(b1-4)GlcNAc(b1-2)Man(a1-3)[Gal(b1-4)GlcNAc(b1-3)Gal(b1-4)GlcNAc(b1-3)Gal(b1-4)GlcNAc(b1-2)Man(a1-6)]Man(b1-4)GlcNAc(b1-4)GlcNAc
# Method in brief: as §1
# [35] = target: Gal(b1-4)GlcNAc(b1-3)Gal(b1-4)GlcNAc(b1-3)Gal(b1-4)GlcNAc(b1-2)Man(a1-3)[Gal(b1-4)GlcNAc(b1-3)Gal(b1-4)GlcNAc(b1-3)Gal(b1-4)GlcNAc(b1-2)Man(a1-6)]Man(b1-4)GlcNAc(b1-4)[Fuc(a1-6)]GlcNAc
# Method in brief: as §1
binder,measurement,setting,value
B1,glycan array binding signal (z-score),Gal(b1-4)GlcNAc(b1-2)Man,-0.245
same,glycan array binding signal (z-score),[1],-0.166
same,glycan array binding signal (z-score),[2],-0.134
same,glycan array binding signal (z-score),[3],-0.153
same,glycan array binding signal (z-score),[4],-0.122
same,glycan array binding signal (z-score),[5],-0.205
same,glycan array binding signal (z-score),[6],-0.166
same,glycan array binding signal (z-score),[7],-0.204
same,glycan array binding signal (z-score),[8],-0.309
same,glycan array binding signal (z-score),[9],-0.176
same,glycan array binding signal (z-score),[10],-0.171
same,glycan array binding signal (z-score),[11],-0.211
same,glycan array binding signal (z-score),[12],-0.055
same,glycan array binding signal (z-score),[13],0.079
same,glycan array binding signal (z-score),[14],-0.195
same,glycan array binding signal (z-score),[15],-0.114
same,glycan array binding signal (z-score),[16],-0.118
same,glycan array binding signal (z-score),[17],0.12
same,glycan array binding signal (z-score),[18],-0.173
same,glycan array binding signal (z-score),[19],-0.258
same,glycan array binding signal (z-score),[20],-0.36
same,glycan array binding signal (z-score),[21],-0.186
same,glycan array binding signal (z-score),[22],-0.295
same,glycan array binding signal (z-score),[23],-0.168
same,glycan array binding signal (z-score),Gal(b1-4)GlcNAc(b1-3)Fuc,-0.195
same,glycan array binding signal (z-score),[24],-0.167
same,glycan array binding signal (z-score),[25],-0.117
same,glycan array binding signal (z-score),[26],-0.198
same,glycan array binding signal (z-score),[27],-0.181
same,glycan array binding signal (z-score),[28],0.469
same,glycan array binding signal (z-score),[29],-0.183
same,glycan array binding signal (z-score),[30],-0.2
same,glycan array binding signal (z-score),[31],-0.186
same,glycan array binding signal (z-score),[32],-0.195
same,glycan array binding signal (z-score),[33],-0.157
same,glycan array binding signal (z-score),[34],0.549
same,glycan array binding signal (z-score),[35],-0.247
